The supplement of paper PMC8728848
Some of the results follow.

Assays:
Assay in all cases: glycan array binding signal (z-score within array); higher = stronger binding
Conditions in all cases: glycan notation: IUPAC condensed, linker removed
Fuc(a1-3)GlcNAc = target: Fuc(a1-3)GlcNAc
In short: (§1)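 Glycan array binding is given as a within-array Z-score, which can be read as non-binding when negative. The arrays, 3228 of them, came from the Consortium for Functional Glycomics database and were retained only where the protein sequence was available. Z-scores were averaged across arrays of the same protein sequence at different concentrations or buffers and across linkers.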

[1] = target: Fuc(a1-3)[Gal(b1-4)]Glc6S
In short: as §1

[2] = target: Fuc(a1-3)[Gal(b1-4)]GlcNAc
In short: as §1

[3] = target: Fuc(a1-3)[Gal(b1-4)]GlcNAc(b1-2)Man
In short: as §1

[4] = target: Fuc(a1-3)[Gal(b1-4)]GlcNAc(b1-2)Man(a1-3)[Fuc(a1-3)[Gal(b1-4)]GlcNAc(b1-2)Man(a1-6)]Man(b1-4)GlcNAc(b1-4)GlcNAc
In short: as §1

[5] = target: Fuc(a1-3)[Gal(b1-4)]GlcNAc(b1-2)Man(a1-3)[Fuc(a1-3)[Gal(b1-4)]GlcNAc(b1-2)Man(a1-6)]Man(b1-4)GlcNAc(b1-4)[Fuc(a1-6)]GlcNAc
In short: as §1

[6] = target: Fuc(a1-3)[Gal(b1-4)]GlcNAc(b1-3)Gal(b1-3)[Fuc(a1-4)]GlcNAc
In short: as §1

[7] = target: Fuc(a1-3)[Gal(b1-4)]GlcNAc(b1-3)GalNAc
In short: as §1

[8] = target: Fuc(a1-3)[Gal(b1-4)]GlcNAc(b1-4)Gal(b1-4)[Fuc(a1-3)]GlcNAc
In short: as §1

[9] = target: Fuc(a1-3)[Gal(b1-4)]GlcNAc(b1-4)Gal(b1-4)[Fuc(a1-3)]GlcNAc(b1-4)Gal(b1-4)[Fuc(a1-3)]GlcNAc
In short: as §1

[10] = target: Fuc(a1-3)[Gal(b1-4)]GlcNAc(b1-6)GalNAc
In short: as §1

[11] = target: Fuc(a1-3)[Gal(b1-4)]GlcNAc(b1-6)[Gal(b1-3)GlcNAc(b1-3)]Gal(b1-4)Glc
In short: as §1

[12] = target: Fuc(a1-3)[Gal(b1-4)]GlcNAc6S
In short: as §1

[13] = target: Fuc(a1-3)[Gal3S(b1-4)]Glc
In short: as §1

[14] = target: Fuc(a1-3)[Gal3S(b1-4)]GlcNAc
In short: as §1

[15] = target: Fuc(a1-3)[Gal3S(b1-4)]GlcNAc6S
In short: as §1

[16] = target: Fuc(a1-3)[GalNAc(b1-4)]GlcNAc
In short: as §1

[17] = target: Fuc(a1-3)[GalNAc(b1-4)]GlcNAc6S
In short: as §1

Fuc(a1-4)GlcNAc = target: Fuc(a1-4)GlcNAc
In short: as §1

Fuc(b1-3)GlcNAc = target: Fuc(b1-3)GlcNAc
In short: as §1

Gal(a1-2)Gal = target: Gal(a1-2)Gal
In short: as §1

Gal(a1-3)Gal = target: Gal(a1-3)Gal
In short: as §1

Gal(a1-3)Gal(b1-3)GlcNAc = target: Gal(a1-3)Gal(b1-3)GlcNAc
In short: as §1

[18] = target: Gal(a1-3)Gal(b1-3)GlcNAc(b1-2)Man
In short: as §1

[19] = target: Gal(a1-3)Gal(b1-3)GlcNAc(b1-2)Man(a1-3)[Gal(a1-3)Gal(b1-3)GlcNAc(b1-2)Man(a1-6)]Man(b1-4)GlcNAc(b1-4)GlcNAc
In short: as §1

[20] = target: Gal(a1-3)Gal(b1-3)GlcNAc(b1-3)GalNAc
In short: as §1

[21] = target: Gal(a1-3)Gal(b1-3)GlcNAc(b1-6)GalNAc
In short: as §1

[22] = target: Gal(a1-3)Gal(b1-3)[Fuc(a1-4)]GlcNAc(b1-2)Man(a1-3)[Gal(a1-3)Gal(b1-3)[Fuc(a1-4)]GlcNAc(b1-2)Man(a1-6)]Man(b1-4)GlcNAc(b1-4)GlcNAc
In short: as §1

Gal(a1-3)Gal(b1-4)Glc = target: Gal(a1-3)Gal(b1-4)Glc
In short: as §1

Gal(a1-3)Gal(b1-4)GlcNAc = target: Gal(a1-3)Gal(b1-4)GlcNAc
In short: as §1

B1: ECL (Erythrina cristagalli), Q6YD91 (protein)
chain: VETISFSFSEFEPGNNDLTLQGAAIITQSGVLQLTKINQNGMPAWDSTGRTLYTKPVHIWDMTTGTVASFETRFSFSIEQPYTRPLPADGLVFFMGPTKSKPAQGYGYLGVFNNSKQDNSYQTLAVEFDTFSNPWDPPQVPHIGIDVNSIRSIKTQPFQLDNGQVANVVIKYDASSKILLAVLVYPSSGAIYTIAEIVDVKQVLPEWVDVGLSGATGAQRDAAETHDVYSWSFHASLPETND
glycan array binding signal (z-score) (Fuc(a1-3)GlcNAc): -0.424
glycan array binding signal (z-score) [1]: -0.148
glycan array binding signal (z-score) [2]: -0.23
glycan array binding signal (z-score) [3]: -0.236
glycan array binding signal (z-score) [4]: -0.243
glycan array binding signal (z-score) [5]: 1.72
glycan array binding signal (z-score) [6]: -0.15
glycan array binding signal (z-score) [7]: -0.179
glycan array binding signal (z-score) [8]: -0.233
glycan array binding signal (z-score) [9]: -0.111
glycan array binding signal (z-score) [10]: 0.251
glycan array binding signal (z-score) [11]: -0.145
glycan array binding signal (z-score) [12]: -0.319
glycan array binding signal (z-score) [13]: -0.256
glycan array binding signal (z-score) [14]: -0.286
glycan array binding signal (z-score) [15]: -0.357
glycan array binding signal (z-score) [16]: -0.225
glycan array binding signal (z-score) [17]: -0.33
glycan array binding signal (z-score) (Fuc(a1-4)GlcNAc): -0.108
glycan array binding signal (z-score) (Fuc(b1-3)GlcNAc): -0.258
glycan array binding signal (z-score) (Gal(a1-2)Gal): -0.32
glycan array binding signal (z-score) (Gal(a1-3)Gal): -0.343
glycan array binding signal (z-score) (Gal(a1-3)Gal(b1-3)GlcNAc): -0.368
glycan array binding signal (z-score) [18]: -0.209
glycan array binding signal (z-score) [19]: 0.219
glycan array binding signal (z-score) [20]: -0.318
glycan array binding signal (z-score) [21]: -0.127
glycan array binding signal (z-score) [22]: 0.558
glycan array binding signal (z-score) (Gal(a1-3)Gal(b1-4)Glc): -0.173
glycan array binding signal (z-score) (Gal(a1-3)Gal(b1-4)GlcNAc): -0.235
